Results: PubChem BioAssay (NCI)
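Values below derive from 48-hour exposures of cells grown in 96-well plates, with endpoints linearly interpolated between the two concentrations bracketing the appropriate inhibition level. At the GI50, growth is halved. The concentration for full growth arrest is given as TGI.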

test system: NCI-H322M lung; test: NCI tumour cell line growth inhibition, 48 h

First: COc1ccc2c(-c3ccc(OCCN(C)C)cc3)c(Oc3ccc(Cl)cc3)c(=O)oc2c1
Second: O=C(COc1ccc(Cl)cc1)N1CCN(C(=O)COc2ccc(Cl)cc2)c2ccccc21
The TGI of the first is lower: 16.1 µM for the first, > 100 µM for the second.

Compared with `NNc1c2ccccc2nc2ccccc12`, `N#Cc1c(Nc2nc3ccccc3s2)c2ccccc2n2c1nc1ccccc12` is higher in TGI: 36.5 µM for the first, > 100 µM for the second.

`CC(=O)[CH-]C(=O)Nc1ccccc1.CC(=O)[CH-]C(=O)Nc1ccccc1.CC[O-].CC[O-].[Ti+4]` and `O=C1NC2CCCCC2N=C1/C(C(=O)c1ccccc1)=C(\O)c1ccccc1` (stereo not drawn) cannot be ordered by TGI: > 100 µM for the first, > 100 µM for the second.

First: CCOC1OC(=O)[C@H]2[C@@H]1[C@@H]1CC[C@H]2O1 (stereo partly drawn)
Second: COc1cccc2c1[C@H]1CO[C@H]3C4C[C@H](C(=O)O)C([C@@H](C2)N13)N4C (stereo partly drawn)
The TGI of the first is higher: > 100 µM for the first, 4.33 µM for the second.

`O=[N+]([O-])c1ccc2c(Nc3ccccc3-c3ccccc3Nc3c4ccccc4nc4cc([N+](=O)[O-])ccc34)c3ccccc3nc2c1` and `O=C1c2ccccc2-c2nc(-c3ccccc3)cc3c2c1nc1ccccc13` are within 1.5-fold of each other in TGI: 46.2 µM for the first, 60.4 µM for the second.

Compared with `N.N.N.N.N.O=S(=O)([O-])C(F)(F)F.O=S(=O)([O-])C(F)(F)F.[Os+8]`, `O=S(=O)(NC1=NCCN1C(=S)SN1CCn2c1nsc2=S)c1cccc(OC(F)(F)F)c1` is 1.7-fold higher in TGI: 20.7 µM for the first, 35.3 µM for the second.

First: Cc1nn(C)c2nc3ccc(Cl)cc3c(-c3ccccc3)c12
Second: CN1CCN(c2cc3nc4ccccc4n(-c4ccc(Cl)cc4)c-3cc2=N)CC1
The TGI of the first is higher: > 100 µM for the first, 52.5 µM for the second.

First: O=C1CSC(c2ccccc2O)N1c1nnc(Cn2ccnc2)o1 (stereo not drawn)
Second: COc1ccc(Cc2nc3ccccc3s2)cc1OC
The TGI of the first is 4.1-fold lower: 21.5 µM for the first, 87.1 µM for the second.

Going from `Oc1nc(N/N=C/c2ccccc2)[nH]c1/C=C1\C=Nc2ccccc21` to `Clc1ccccc1NN(Cc1ccncc1)c1ccccc1Cl`, the TGI falls from > 100 µM to 28.6 µM.

Compared with `O=C(/C=C(\O)c1ccccc1)/C(=C/C(=O)c1ccccc1)NN=C(c1ccccc1)c1ccccc1`, `OC(CCN1CCN(CCOC(c2ccccc2)c2ccccc2)CC1)c1ccc(Br)cc1` (stereo not drawn) is lower in TGI: > 100 µM for the first, 27.5 µM for the second.

`CC(NNC(=O)c1ccncc1)c1ccc(Cl)c(Cl)c1` (stereo not drawn) and `Cc1ccnc(NC(=S)Nc2cccc(Cl)c2)c1` cannot be ordered by TGI: > 100 µM for the first, > 100 µM for the second.

Going from `CCN1CCCC(Nc2cc(C)nc(/N=C(/N)Nc3ccc(Cl)c(Cl)c3)n2)C1` (stereo not drawn) to `CN(CCc1ccc(Cl)c(Cl)c1)CCN(C)CCN1CCCC1`, the TGI rises from 4.1 µM to 23.4 µM (5.7-fold).

`NC(=O)c1cccc(-c2cc(C(N)=O)ccc2Cl)c1` and `Nc1ccc(-c2nc3ccc(F)cc3s2)cc1` cannot be ordered by TGI: > 100 µM for the first, > 100 µM for the second.

`CC(=O)c1ccc(N2CCN(C3=CC(=O)c4c(O)ccc(O)c4C3=O)CC2)cc1` and `CCN(C(=O)CN1CCN(c2cc3c(cc2F)c(=O)c(C(=O)O)cn3CC)CC1)c1nc(-c2ccccc2)cs1` cannot be ordered by TGI: > 100 µM for the first, > 100 µM for the second.

First: C=C1CC[C@@H]2[C@](C)(COC(C)=O)[C@H](OC(C)=O)CC[C@@]2(C)[C@@H]1CC(Nc1ccc(S(=O)(=O)Nc2nccs2)cc1)C1=CCOC1=O (stereo partly drawn)
Second: COC(=O)C1=C(C)N(NC(=O)c2ccccc2)C2(O)CCCC(=O)C12C (stereo not drawn)
The TGI of the first is lower: 24.9 µM for the first, > 100 µM for the second.

`CCN1C(=O)N(CC)C2C1NN=c1s/c(=C\c3ccc[nH]3)c(=O)n12` (stereo not drawn) and `COC(=O)/C(C#N)=C1\CCc2ccccc21` cannot be ordered by TGI: > 100 µM for the first, > 100 µM for the second.

Going from `Nc1n[nH]c2ccc([C@@H]3Nc4cc5[nH]ncc5cc4[C@H]4C5CCC(C5)[C@@H]34)cc12` (stereo partly drawn) to `COc1cccc(C2C(C#N)=C(N)Oc3c2ccc2ccccc32)c1` (stereo not drawn), the TGI falls from > 100 µM to 20.3 µM.

`O=C1c2ccccc2C(=O)N1C1(C(=O)NC2(C(=O)O)CCCC2)CCCC1` and `COC(=O)/C=C/c1cc(OC)c2oc(-c3ccc(OC)c(OC)c3)c(C(=O)OC)c2c1` cannot be ordered by TGI: > 100 µM for the first, > 100 µM for the second.

`C#C[C@H]1CCCCCC1O` (stereo partly drawn) and `CC(=O)O.CC(=O)O.CC(=O)O.CC(=O)O.[Rh].[Rh]` cannot be ordered by TGI: > 100 µM for the first, > 100 µM for the second.

Going from `NNc1c2ccccc2nc2ccccc12` to `COc1cccc(C2C(C#N)=C(N)Oc3c2ccc2ccccc32)c1` (stereo not drawn), the GI50 falls from 7.32 µM to 0.0508 µM (140-fold).

Compared with `CC(=O)[CH-]C(=O)Nc1ccccc1.CC(=O)[CH-]C(=O)Nc1ccccc1.CC[O-].CC[O-].[Ti+4]`, `CCN(C(=O)CN1CCN(c2cc3c(cc2F)c(=O)c(C(=O)O)cn3CC)CC1)c1nc(-c2ccccc2)cs1` is lower in GI50: > 100 µM for the first, 0.352 µM for the second.

Compared with `CCOC1OC(=O)[C@H]2[C@@H]1[C@@H]1CC[C@H]2O1` (stereo partly drawn), `COc1cccc2c1[C@H]1CO[C@H]3C4C[C@H](C(=O)O)C([C@@H](C2)N13)N4C` (stereo partly drawn) is lower in GI50: > 100 µM for the first, 0.894 µM for the second.

First: N.N.N.N.N.O=S(=O)([O-])C(F)(F)F.O=S(=O)([O-])C(F)(F)F.[Os+8]
Second: O=S(=O)(NC1=NCCN1C(=S)SN1CCn2c1nsc2=S)c1cccc(OC(F)(F)F)c1
The GI50 of the first is 2.3-fold lower: 6.81 µM for the first, 15.8 µM for the second.

Going from `O=C1CSC(c2ccccc2O)N1c1nnc(Cn2ccnc2)o1` (stereo not drawn) to `NC(=O)c1cccc(-c2cc(C(N)=O)ccc2Cl)c1`, the GI50 rises from 4.38 µM to 50.5 µM (12-fold).

Compared with `C=C1CC[C@@H]2[C@](C)(COC(C)=O)[C@H](OC(C)=O)CC[C@@]2(C)[C@@H]1CC(Nc1ccc(S(=O)(=O)Nc2nccs2)cc1)C1=CCOC1=O` (stereo partly drawn), `CCN1C(=O)N(CC)C2C1NN=c1s/c(=C\c3ccc[nH]3)c(=O)n12` (stereo not drawn) is 15-fold lower in GI50: 12 µM for the first, 0.815 µM for the second.

First: Nc1n[nH]c2ccc([C@@H]3Nc4cc5[nH]ncc5cc4[C@H]4C5CCC(C5)[C@@H]34)cc12 (stereo partly drawn)
Second: CN1CCN(c2cc3nc4ccccc4n(-c4ccc(Cl)cc4)c-3cc2=N)CC1
The GI50 of the first is 30-fold lower: 0.667 µM for the first, 19.7 µM for the second.

With `CC(=O)O.CC(=O)O.CC(=O)O.CC(=O)O.[Rh].[Rh]` the GI50 was > 100 µM.
